Measurements as given in PubChem BioAssay AID686978 (National Center for Advancing Translational Sciences (NCATS), 2013).
In all, about 420,000 compounds went through this assay and about 64,000 (15%) were called active. Inconclusive results, whose numbers are uncertain, are shown with a selection of clear calls. Calls come from the whole dose curve; as a rule, active = well fitted inhibition curve with a large enough effect; inconclusive = small, poorly fitted or top-dose-only effect; inactive = flat fitted curve, though single readings scatter. No potency is given beside an inconclusive call; the fits are too rough.

Assay: qHTS for Inhibitors of human tyrosyl-DNA phosphodiesterase 1 (TDP1): qHTS in cells in absence of CPT; note: nearly all actives have a fitted effect of over 55% in size
Conditions: DT40 Tdp1-/- hTDP1 cells, no CPT, ATP luminescence, 48 h; series mostly up to 46.2 µM
Outline: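 Growth of hTDP1-complemented DT40 Tdp1-knockout cells is measured by ATP luminescence after at least 48 hr compound exposure at 37 °C, with DMSO substituting for the 20 nM CPT used in the parallel screen.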
Potency is the fitted concentration of half-maximal effect; tags give direction and shape of the fitted curve.

| SMILES | Potency |
| --- | --- |
| Cc1ccc(NCCCn2cnc(C(=O)Nc3ccc(C)c(C)c3)n2)cc1C | inactive |
| Cc1[nH]nc(SCC(=O)N(C)c2ccccc2)c1[N+](=O)[O-] | inactive |
| O=C(Cc1csc2ccccc12)NCc1ccccc1F | inconclusive [inhibitor, partial curve] |
| CCN(CCn1cccn1)Cc1cn[nH]c1-c1ccc(-c2ccccc2)cc1 | active: 23.1 µM |
| Clc1ccc2nc(-c3ccc(Br)o3)c(Nc3ccc4c(c3)OCCO4)n2c1 | inconclusive [inhibitor, single point] |
| O=C1/C(=C/c2ccccc2)CSc2sccc21 | inconclusive [inhibitor, single point] |
| COc1ccc(NC(=O)c2noc3c2CSc2ccccc2-3)cc1Cl | inactive |
| CC(C)n1nnnc1C1c2ccccc2C(=O)N1CCc1ccccc1F (stereo unspecified) | inconclusive [inhibitor, single point] |
| COc1ccc(Nc2ncnc3sc(C)cc23)c(OC)c1 | inconclusive [inhibitor, single point] |
| CCc1cccc(-n2nnc(-c3nc(-c4cccs4)no3)c2N)c1 | inconclusive [inhibitor, single point] |
| COc1cc(/C=C2\CCC(C)C3=C(c4cc(OC)c(OC)c(OC)c4)C(C#N)=C(N)OC32)cc(OC)c1OC (stereo unspecified) | active: 3.66 µM |
| COc1ccc(NC(=O)N2CCc3ccccc32)cc1 | inconclusive [inhibitor, single point] |
| CC(=O)N1CCCc2cc(S(=O)(=O)N3CCN(c4ccc(F)cc4)CC3)ccc21 | active: 16.4 µM |
| CCC(=O)OCCCNc1nc(-c2ccc(Cl)cc2)nc2ccccc12 | inconclusive [inhibitor, single point] |
| COc1ccc(CN(C)C(=O)c2cccc(S(=O)(=O)N3CCc4ccccc43)c2)c(OC)c1 | active: 14.6 µM |
| Nc1c(Cl)c(Cl)nc(C(=O)N/N=C/c2cccnc2)c1Cl | inconclusive [inhibitor, single point] |
| COc1cc(N2C(=O)C=CC2=O)ccc1N1C(=O)C=CC1=O | active: 0.92 µM |
| COc1ccc(C(=O)N2CCC3(CC2)CN(c2ccccc2)C3)cc1 | inconclusive [inhibitor, single point] |
| CCCCn1nc(NC(=O)c2cccs2)c2cc3ccccc3nc21 | active: 18.4 µM |
| Clc1ccc(SCCOCCN2CCCCC2)cc1 | active: 16.4 µM |
| Nc1cc(=O)[nH]c(SCC(=O)Nc2cc([N+](=O)[O-])ccc2Cl)n1 | inconclusive [inhibitor, single point] |
